Measurements from PubChem BioAssay AID894 (National Center for Advancing Translational Sciences (NCATS), 2007).
Values joined by “and” are separate entries in the source; they are usually repeats but may differ in a detail not shown here. Identical values can stand only once. In all, about 150,000 compounds went through this assay and about 6,500 (4.3%) were called active. The inconclusive results got no clear call from the source; some entries with a clear call stand among them for comparison. Calls follow the shape of the dose curve; as a rule, active = well fitted inhibition curve with a large enough effect (not every such curve was filed as active); inconclusive = small, poorly fitted or top-dose-only effect, or another doubt; inactive = no such curve, though single readings can be large or run the other way. Potencies of inconclusive entries are doubtful fits and often do not repeat.

target: 15-hydroxyprostaglandin dehydrogenase [NAD(+)] (Homo sapiens) (UniProt P15428); test: qHTS Assay for Inhibitors of HPGD (15-Hydroxyprostaglandin Dehydrogenase); conditions: purified HPGD, NADH fluorescence kinetic, PGE2 substrate; activity change, negative = inhibition: active compounds read low
In short: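 NADH formation kinetics: reaction with 30 uM PGE2 and 1 mM NAD+ (final), 20 nM enzyme, Tris-HCl pH 8 with Tween 20, after 15 min compound preincubation at room temperature. Fluorescence change, last versus first of five reads.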
% is scaled to controls: 0 for no effect and ±100 for the full control effect; potency is read from the fitted curve at half-maximal effect; tags tell the direction and shape of the fitted curve.

Chain of UniProt P15428 (P15428 whole entry, looked up): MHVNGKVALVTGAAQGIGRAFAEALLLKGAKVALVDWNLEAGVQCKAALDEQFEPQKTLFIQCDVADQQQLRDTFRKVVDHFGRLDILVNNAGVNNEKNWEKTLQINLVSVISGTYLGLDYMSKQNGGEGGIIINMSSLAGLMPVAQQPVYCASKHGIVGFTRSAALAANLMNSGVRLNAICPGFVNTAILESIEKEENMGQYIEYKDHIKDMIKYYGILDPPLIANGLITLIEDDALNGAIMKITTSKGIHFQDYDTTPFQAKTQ

Activity change, negative = inhibition, inactive:
O=C(NNC(=O)c1sc2cccc(Cl)c2c1Cl)NC1CCCCC1 -8.59%, CC(=O)CC(c1ccccc1)C1C(=O)Oc2ccccc2C1=O (configuration not stated) -12.2%, O=C(O)C1C2CCC(C2)C1C(=O)NCc1ccco1 (configuration not stated) -14.6%, O=C(Nc1cccc2c1[nH]c1ccccc12)C(F)(F)F -12.7%, CCOC(=O)CN1C(=O)N[C@@H](c2cccc(F)c2)C(C(=O)OC)=C1C -9.21%, O=C(Nc1ccc(OCC(=O)N2CCOCC2)cc1)c1cncc(Br)c1 -7.92%, CCOc1ccccc1Nc1nnc(SCC(=O)NC(=O)c2cccn2C)s1 -21.3%, COc1ccc2nc(NC(=O)CSc3nnnn3C3CCCCC3)sc2c1 -16.9%, N#Cc1ccccc1Sc1ccccc1C(=O)OCC(=O)NC1CCCCC1 -19.1%, CC1Cc2ccccc2N1C(=O)CSc1nnc(Cn2nnc3ccccc32)n1C (configuration not stated) -6.88%, Cn1cc(/C=C2\SC(=S)N(NC(=O)c3ccccc3)C2=O)c2ccccc21 -7.3%, Cn1c(COc2ccc(Cl)cc2)nnc1SCC(=O)Nc1ccc2c(c1)CCC2 -3.98%, CN(Cc1ccccc1)C(=O)CC(c1ccccc1)c1cc(Cl)ccc1O (configuration not stated) -27%, CCOC(=O)Cc1csc(NC(=O)CSc2ccc(Br)cc2)n1 -1.05%, c1ccc(Cn2nnc(-c3ccccc3)n2)cc1 -19.1%

Potency, active:
Cn1c(=O)[nH]c(=O)c2c1nc(SCCN1CCOCC1)n2CCCc1ccccc1 35.5 µM, N/C(=N\OC(=O)c1ccccc1Cl)c1ccccc1 11.2 µM, COC(=O)C(C)n1cnc2c(nnn2Cc2ccc(Cl)cc2)c1=O (configuration not stated) 28.2 µM, Cc1cccc(C(CC(=O)N2CCCC2)c2ccccc2)c1O (configuration not stated) 11.2 µM, CCOC(=O)/C(=C\c1ccc(Cl)cc1)c1nc2sc(C)c(C)c2c(=O)[nH]1 22.4 µM, CC(C)(C)C(=O)Nc1ccc(Sc2ccc([N+](=O)[O-])cc2)cc1 8.91 µM, Cc1ccc(C2CC(=O)NC(SCc3ccccc3)=C2C#N)o1 (configuration not stated) 22.4 µM, Cc1ccc(-c2noc(CCC(=O)N(C)c3ccccc3C)n2)cc1 14.1 µM, CCCc1cc(=O)[nH]c(SCc2cc(C(=O)OC)c(C)o2)n1 15.8 µM

Potency, inconclusive:
c1nc(NCCN2CCOCC2)c2sc3nc(N4CCOCC4)c4c(c3c2n1)CCC4 31.6 µM [inhibitor, partial curve], COc1ccc(/C=C/C(=O)N(C)C2CCS(=O)(=O)C2)cc1OC (configuration not stated) 25.1 µM [inhibitor, partial curve], CCN(CC)CCNC(=O)Cn1c(-c2ccccn2)nc2ccccc21 28.2 µM [inhibitor, partial curve], Cc1ccc2ccc3cccc4ccc1c2c34 10 µM [inhibitor, single point], Cc1c(OCc2nn[nH]n2)ccc2c3c(c(=O)oc12)CCC(C)C3 (configuration not stated) 31.6 µM [inhibitor, partial curve], Fc1nc(N2CCCC2)c(F)c(Oc2ccccc2Oc2c(F)c(F)nc(N3CCCC3)c2F)c1F 25.1 µM [inhibitor, partial curve], COc1ccccc1-c1cc(C(=O)NCCc2ccccc2)no1 28.2 µM [inhibitor, partial curve], Cc1cccc(-c2nsc(SCC(=O)NCc3ccco3)n2)c1 28.2 µM [inhibitor, single point], CC(C)CCN1C(=O)c2ccc(-c3nc4ccccc4c(=O)o3)cc2C1=O 31.6 µM [inhibitor, partial curve], CC1(CC(=O)O)C(=O)N=C2C=CC=CN21 (configuration not stated) 31.6 µM [inhibitor, partial curve], CCC1CCc2c(n(C)c3ccccc3c2=O)O1 (configuration not stated) 22.4 µM [inhibitor, single point], COc1cc(NC(=O)c2cc3ccccc3o2)c(OC)cc1Br 4.47 µM [inhibitor, full curve], COC(=O)c1ccc(N2Cc3ccccc3/C2=N\C(=O)Nc2ccccc2)cc1 5.01 µM [inhibitor, partial curve], Cc1nc(NC2CCCCC2)c2nc(-c3ccccc3)n(CCN(C)C)c2n1 31.6 µM [inhibitor, partial curve], Cc1nn(-c2ccccc2)c2sc(C(=O)N3CCc4ccccc4C3)cc12 25.1 µM [inhibitor, partial curve], CCN(c1ccccc1)S(=O)(=O)c1ccc2[nH]cc(C(=O)N3CCOCC3)c(=O)c2c1 11.2 µM [inhibitor, partial curve], COc1cc2c(cc1NC(=O)COC(=O)[C@@H](NC(=O)c1ccccc1F)C(C)C)oc1ccccc12 31.6 µM [inhibitor, single point], Clc1ccc(-c2nnc3sc(Cc4cccs4)nn23)c(Cl)c1 14.1 µM [inhibitor, partial curve], CCOC(=O)Nc1cc(=O)c2ccccc2o1 28.2 µM [inhibitor, partial curve], Cn1c(=O)c(CCc2ccccc2)nc2cnc(N3CCNCC3)nc21 15.8 µM [inhibitor, partial curve], CN(C)/C=N/c1cc(=O)[nH]c(=O)n1Cc1ccccc1 25.1 µM [inhibitor, partial curve, poor fit] and 31.6 µM [inhibitor, single point], Cc1nc2ccc(S(=O)(=O)Nc3ccc(-c4nc5cccnc5s4)cc3)cc2s1 14.1 µM [inhibitor, partial curve], CCSc1oc(-c2ccco2)nc1S(=O)(=O)c1ccc(F)cc1 39.8 µM [inhibitor, partial curve]
